Data from publication PMC12136788.
The other results are listed elsewhere or left out.

B1: chr7:127374855:127374969:-|CDS|ENSG00000048405|unk|FALSE|unique (ssRNA)
RNA: GGGAGUUCUACAGUCCGACGAUCCCUAGAAGCCAUAUAUCCAAGUGUGGACAAACGAGAAUAUAUUAUUAAGCUAGAACCCAUAGAAACUAAUCAAAAUGCAGUAUUUCAAUAUAUUUCGAGGACUGAUAAUCCUAUUGAAGUCAACAGAGGAUUGAGCAUCA
B2: ENSG00000090470:stop:overlap|stop_codon|ENSG00000090470|stop_codon|NA|stop_codon (ssRNA)
RNA: GGGAGUUCUACAGUCCGACGAUCGAUGGGUCCUUCCCCCGCUCCCCAGCAACGACAUCUGGGCAACUGCUGUUAAGCUGCAUUAGUAAAGAUGCUCCAGGAGUGUGGUCCAGCCAGCGCUCUUUCCAGCUGUAAAUAUUAGCGCAACAGAGGAUUGAGCAUCA
B3: chr14:55048714:55048815:+|3pUTR|ENSG00000180008|msi1|FALSE|bound_elsewhere (ssRNA)
RNA: GGGAGUUCUACAGUCCGACGAUCUUUCUAAUUUUGAACAGAUGACUCAGUCCUAAAUCUUUGCCUUUAUUUCCUAUAAAAUGUAGGUGAUACUUGUAACUCGACUUCCUGGAGUUAAUUCUUCAGCAAGAGGUGACCCUGGGACAACAGAGGAUUGAGCAUCA
B4: chr1:223774945:223775046:+|3pUTR|ENSG00000162909|msi1|FALSE|unique (ssRNA)
RNA: GGGAGUUCUACAGUCCGACGAUCAAAUACACUUUGUAUCUGGACCUCAAAAUUAUGGGAACAUUUACUUAAACGGAUGAUCAUAGCUGAAAAUAAUGAUACUGUCAAUUUGAGAUAGCAGAAGUUUCACACAUCAAAGUAAAACAACAGAGGAUUGAGCAUCA
B5: ENSG00000107863:be:win_3751|CDS|ENSG00000107863|bound_else_gene|NA|bound_elsewhere_windowed (ssRNA)
RNA: GGGAGUUCUACAGUCCGACGAUCGAUCCUCUAGAUCGUCUGAAAACAUUAAAAAGACUAAUUCACGAUUUGCCUGAACAUCAUUAUGAAACACUUAAGUUCCUUUCAGCUCAUCUGAAGACAGUGGCAGAAAAUUCAGAAAAACAACAGAGGAUUGAGCAUCA
B6: chr13:100668578:100668794:-|CDS|ENSG00000125247|control|control|control (ssRNA)
RNA: GGGAGUUCUACAGUCCGACGAUCCACUGAUUUGGAUCACAUUCUUCCAUCUUCUGUUCUUCCUCCAUUCUGGGCUAAGUUAGUAGUGGGAUCGGUUGCCAUUGUGUGUUUUGCACGCAGCUAUGAUGGAGACUUUGUCUUUGACAACAGAGGAUUGAGCAUCA
B7: chr7:111727939:111728040:-|3pUTR|ENSG00000128512|unk|total|mutant (ssRNA)
RNA: GGGAGUUCUACAGUCCGACGAUCAAGUGGUAAACCGUGAUAAAGACUCCUUUUGUACCUUUUUAUGUUCACUUUUUUUUAUACCGUUUAAUCUUAAAACCAAUACGAUAUUGUCAAACGAUACAAUGUGUGACAAUGUUGUAUCAACAGAGGAUUGAGCAUCA
B8: chr11:113276847:113276948:+|3pUTR|ENSG00000149294|msi1|FALSE|unique (ssRNA)
RNA: GGGAGUUCUACAGUCCGACGAUCAGAAGGGAAAAGCCAGCCCUUUGUAUAGAAAUUUUGCUUUUUUUUCCCUCAUUCUACUUUAGAACUGCAAGCUUGUGCACUGUGGAUGCGUGAAUAUUUUAGUGUGAAACGUGUUUUUGUCAACAGAGGAUUGAGCAUCA
B9: ENSG00000008256:stop:overlap|stop_codon|ENSG00000008256|stop_codon|NA|stop_codon (ssRNA)
RNA: GGGAGUUCUACAGUCCGACGAUCGCAGAGAUCCCUUCUAUGACAUGUUGGCAACGAGGAAACGAAGGAUUGCCAAUAAAAAAUAGCUUUCCUGGCUAAAAGACCCAGGUAAAAGACCCAACCCCAGCAGAAAGACACCGCGGGCAACAGAGGAUUGAGCAUCA
B10: chr1:23854467:23854568:-|CDS|ENSG00000179163|unk|FALSE|unique (ssRNA)
RNA: GGGAGUUCUACAGUCCGACGAUCAAGUCAAGUGGUUUUACUCCUCAUGACCAAAUAUUCUUUCCCUCCUUAGGAUGAGGUGGUAGUAAAUGACCGAUGGGGUCAGAACUGUUCCUGUCACCAUGGAGGAUACUAUAACUGUGACAACAGAGGAUUGAGCAUCA
B11: ENSG00000198589:be:win_3301|CDS|ENSG00000198589|bound_else_gene|NA|bound_elsewhere_windowed (ssRNA)
RNA: GGGAGUUCUACAGUCCGACGAUCAUAGUAGAGGAAGAGGAAGAUGAUGAUUAUGUGGAACUGAAAGUAGAAGGCAGUCCUACUGAGGAAGCUAAUCUACCCACAGAGCUCCAAGAUAACAGUUUGUCUCCAGCUGCAUCUGAACAACAGAGGAUUGAGCAUCA
B12: chr16:82148161:82148730:-|three_prime_utr|ENSG00000135698|control|control|control (ssRNA)
RNA: GGGAGUUCUACAGUCCGACGAUCCCAGGGGUGCUUGGUGGAAGUCAGCAGGGCAUCUGGAGCUCAUCCCAAUGGUGUCUCUAUAGUUAUUAAUACUGUAACGUUUACUUGUAAAGAGAUUAUCAUUUUAGAAACAUGCUGUUUCAACAGAGGAUUGAGCAUCA
B13: chr1:149903635:149903737:-|3pUTR|ENSG00000159164|unk|FALSE|unique (ssRNA)
RNA: GGGAGUUCUACAGUCCGACGAUCGGCUGCUUUCUUUGGUGCCCUCCCCUCACCCCACUGUAGCUGUGACGUGUUGUAGUUUUUAGAUGUUUGUAAAAUGUUUAAAAAAAUGUUAAAAGGAAAAAAGUGAAAAUAACAAAAAAGCAACAGAGGAUUGAGCAUCA
B14: chr6:132588675:132589686:-|CDS|ENSG00000135569|control|control|control (ssRNA)
RNA: GGGAGUUCUACAGUCCGACGAUCUGCCAAGACCCUGGGCAUUGCUGUGGGCAUAUACCUCUUGUGCUGGCUGCCCUUCACCAUAGACACGAUGGUCGACAGCCUCCUUCACUUUAUCACACCCCCACUGGUCUUUGACAUCUUCAACAGAGGAUUGAGCAUCA
B15: chr6:136278143:136278257:-|CDS|ENSG00000029363|unk|total|mutant (ssRNA)
RNA: GGGAGUUCUACAGUCCGACGAUCACAUCCGGUGAUAUUUGGCCUGGCCUUUCAGCUUAUGAUAACCGUCCCCGAUCACCCCACCGUCCUUCACCUAUUGCUACACCACCCCGUCAGAGUUCAUCUUGCUCUGAUGCUCCCAUGCAACAGAGGAUUGAGCAUCA
B16: chr5:38481646:38481747:-|CDS|ENSG00000113594|unk|FALSE|unique (ssRNA)
RNA: GGGAGUUCUACAGUCCGACGAUCCAGACCUCAGGCCAAUGUAAAUACAUGGAAUUUAGUGUCUCCAGACUCUCCUAGAUCCAUAGACAGCAACAGUGAGAUUGUCUCAUUUGGAAGUCCAUGCUCCAUUAAUUCCCGACAAUUCAACAGAGGAUUGAGCAUCA
B17: chrX:17800420:17802010:-|CDS|ENSG00000131831|control|control|control (ssRNA)
RNA: GGGAGUUCUACAGUCCGACGAUCCUUCAGGGCUAUGACAUCAACAGCCAAGGGGAAGAGUCCAUGGGAAAUGCAGAGCCCCUUAGGAAACCCAUCAAAAACCGGAGCAUAAAGUUAAAGAAAGUGAACUCCCAGGAAAUACACCAACAGAGGAUUGAGCAUCA
B18: chr17:18931026:18931127:+|3pUTR|ENSG00000141127|msi1|FALSE|unique (ssRNA)
RNA: GGGAGUUCUACAGUCCGACGAUCGAUACCUGCAAUUGAAAAGCCGAAAAGAUUAUACUGUCAAGUCCAGUAAAUGACAUUUUUAGAGAUGCUUUUGUAGACAAGCAUAUGGAAUAUGUGAUUGUAUUUAUUUUCUGCAACUAACAACAGAGGAUUGAGCAUCA
B19: chr1:108700024:108700125:+|3pUTR|ENSG00000134186|msi1|total|mutant (ssRNA)
RNA: GGGAGUUCUACAGUCCGACGAUCCACAUUGAAUCCUAUAAAUGAUUAAAUCUGCUUUUUUCCCCCACGUUGAGAUUGUGCAGCCGUUCGCACUCCUCAAGCUCUCCCUGCCGGCUGCAUUUUCAUUUCCUCUUUCGUGCCGGGCAACAGAGGAUUGAGCAUCA
B20: ENSG00000198589:be:win_7301|CDS|ENSG00000198589|bound_else_gene|NA|bound_elsewhere_windowed (ssRNA)
RNA: GGGAGUUCUACAGUCCGACGAUCAUUACUUGACCUAUGAAGGAGCUGUCAAUCUGAAUUCAAUAACUGAUCCUGUGUUGAGAGAGGCUGUUGAAGCUCAAAUCCGAAGUUUUGGACAGACUCCUUCUCAACUACUCAUAGAGCCAACAGAGGAUUGAGCAUCA
B21: chr6:144852070:144852171:+|3pUTR|ENSG00000152818|unk|total|mutant (ssRNA)
RNA: GGGAGUUCUACAGUCCGACGAUCAAGUCCUUAACCGUUCUUGAAACUCCCCGUUGUUUUCUUGUUGAAAGCAGACACACAUUCCGUGCACGGCUUAUUUUACCUUUCGGGUGAAAGAUCAGAUGUUUUUAUACCCUUCACUUGCAACAGAGGAUUGAGCAUCA
B22: ENSG00000107863:be:win_4801|CDS|ENSG00000107863|bound_else_gene|NA|bound_elsewhere_windowed (ssRNA)
RNA: GGGAGUUCUACAGUCCGACGAUCUCCAGUCGACUGAGCCCUGAGGUGCAAUCCGUGGCAGAGAGCAAGGGGGACGAGGCAGAUGACGAGAGAAGCGAACUCAUCAGUGAAGGGCGGCCUGUGGAAACCGACAGCGAGAGCGAGCAACAGAGGAUUGAGCAUCA

These binders were tested against MSI1 full-length (mouse, UniProt Q61474 1-362) (assay: nsRBNS (natural sequence RNA bind-n-seq); RBNS binding buffer (assumed for nsRBNS): 25 mM Tris pH 7.5, 150 mM KCl, 3 mM MgCl2, 0.01% Triton X-100, 500 ug/ml BSA, 20 U/ml SUPERase-In, 4 C; UNK is unkempt and MSI1 is Musashi-1; names of the RNAs are library labels; protein concentration not given here; high values mean tight binding).
Chain of UniProt Q61474 (Q61474 whole entry): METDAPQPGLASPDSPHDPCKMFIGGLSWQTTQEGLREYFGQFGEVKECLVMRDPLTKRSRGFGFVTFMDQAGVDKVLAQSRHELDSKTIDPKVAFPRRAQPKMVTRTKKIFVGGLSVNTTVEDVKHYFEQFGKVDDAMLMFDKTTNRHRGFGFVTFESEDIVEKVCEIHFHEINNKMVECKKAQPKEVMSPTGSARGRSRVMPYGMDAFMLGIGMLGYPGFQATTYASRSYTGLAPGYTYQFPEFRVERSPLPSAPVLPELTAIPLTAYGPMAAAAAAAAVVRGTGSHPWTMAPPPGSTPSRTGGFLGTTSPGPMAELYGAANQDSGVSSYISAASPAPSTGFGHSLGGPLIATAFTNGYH

Binder	binding signal
B1	28.2 enrichment R
B2	0.576 enrichment R
B3	0.258 enrichment R
B4	0.252 enrichment R
B5	0.41 enrichment R
B6	0.518 enrichment R
B7	3.05 enrichment R
B8	5.41 enrichment R
B9	0.418 enrichment R
B10	0.51 enrichment R
B11	0.934 enrichment R
B12	4.5 enrichment R
B13	2.18 enrichment R
B14	0.635 enrichment R
B15	0.739 enrichment R
B16	0.693 enrichment R
B17	0.687 enrichment R
B18	1.74 enrichment R
B19	0.603 enrichment R
B20	0.304 enrichment R
B21	0.347 enrichment R
B22	0.556 enrichment R
